{
  "source": "patent US20210230213A1",
  "about": "“ARAMCHOL SALTS” (GALMED RESEARCH AND DEVELOPMENT LTD., priority 2013, published 2021)",
  "data": [
    {"conditions": "crude reaction mixture in water maintained 3 days", "values": [
      {"compound": "2-diethylamino-ethanol", "Stability in water (HPLC) after 3 days": "good"},
      {"compound": "CN(C)CCO", "note": "[Deanol]", "Stability in water (HPLC) after 3 days": "good"},
      {"compound": "Diethanolamine", "Stability in water (HPLC) after 3 days": "good"}
    ]}
  ]
}
